# Some of the results follow.
# System: PF3D7_0420300 AP2 domain 1 (GST-tagged)
# Assay: gcPBM binding intensity (ln(normalized median fluorescence intensity)); higher = stronger DNA binding
# Procedure, shortened: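 The highest Masliner-normalised natural-log median intensity across replicate spots of either probe orientation is reported as binding intensity. GST-tagged P. falciparum DNA-binding domains expressed in E. coli were applied for 1 h to an Agilent 4 × 180k array of primer-extended double-stranded 36-bp intergenic genomic probes plus negative controls, and bound protein was detected with Alexa488 anti-GST antibody and scanned at 488 nm.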
row,Sequence,gcPBM binding intensity (ln)
1,ATATCGTGTGCATTAACACACATTTATTTGAATAAA [CACACA_site7162],9.35
2,TACGATTAAAAAAAATGTACAGATTTTTATAGAATA [XGTACX_site6561],8.93
3,CGTTACACAAAAATATGTACATATATACATATATAT [XGTACX_site4631],9.25
4,TATAAATATAAATACTGTACATTATATTATATAATA [XGTACX_site2480],9.1
5,TATTCCCCCAAACACACACACACACCCACATACCAC [CACACA_site2304],10.3
6,TAAAAATAATATTAATGTACATTACATATTAATATA [XGTACX_site1019],9.01
7,AATGCGCATTTTTTTTTTTTTTTTTTTTTTTTTTTT [XGTACX_negctrl_site258],9.32
8,ATATATATATATATGTGTACATATTAGTGATATAAT [XGTACX_site7161],9.46
9,ATCATTTAAACAATATGTACTCATTGTAGATATGGT [XGTACX_site5088],9.21
10,TGAATAAAATATTATACACACATATGTATTTAACAT [CACACA_site4694],9.4
11,TTGTATTTACTATACACACACATACATACATACATA [CACACA_site4603],9.83
12,AATGGGATCATGGTATGTACTTACACAAATGAATTA [XGTACX_site5389],9.19
13,TAATATTGACTATATACACACATATAAATATAAATA [CACACA_site6414],9.57
14,TATATATATATATATACATGCATCATTGTTCACCTT [TGCATGCA_site177],9.5
15,AAAAAAAAAAAAAAAAGTACATATGCTCAAGAGATG [XGTACX_site3783],9.23
16,TTTTTTTTTTAATTAACACACATAAATATAAATATA [CACACA_site7527],9.11
17,CATTCAAAGAAAAACAGTACGTGTAGCAAAAGGCCT [XGTACX_site266],9.45
18,TAAATAATATAATTATGTACGTATTTCTTTATTTTA [XGTACX_site8410],9.21
19,GCTGAAAATAAATGAAGTACACAAGTAATATATATA [XGTACX_site6205],9.36
20,ATAAAGCCATACAATACACACATTTTACATGTCGGT [CACACA_site3265],9.66
21,ATTCTATATGTTACATAAACCTATATTTTTTTTTTT [CACACA_negctrl_site860],9.31
22,TAAGCCACCATATTTACACACACATCAAAATGTATT [CACACA_site1815],9.77
23,GAAAAAAGAAATTTATGTACATACATATATATATAT [XGTACX_site7888],9.03

row,Sequence,gcPBM binding intensity (ln)
1,ATATGTAAAATATGGGGTACGAAGGTAGGTAGGTAA [XGTACX_site1392],9.88
2,ATAAATACTAAAAATGAAATATAGAAAATAGCAATA [CACACA_negctrl_site501],9.61
3,GTTAATTCTATGAATTGTACTTAAATATAATTATAT [XGTACX_site2785],9.09
4,CAAAATAAAAATAACACACACATTTATATAAATACA [CACACA_site4790],9.9
5,ACAGTTAAAACAATAACACACAAAGAAAAAAAAAAA [CACACA_site737],9.6
6,TATAATATATTATATACACACATTATAAAATACCCA [CACACA_site4858],9.69
7,AGGTAGAAATTGTTAAAAAATCATACATATTATATA [CACACA_negctrl_site622],9.09
8,TATATTTTTATTGAACGTACAAAAAGTCGAAAACAG [XGTACX_site3967],9
9,TTTAAATACAGACATACACACATACACGCACATATA [CACACA_site6400],9.85
10,TCTTATAAAGGTAATTGTACATATTTATAATTTCTT [XGTACX_site4847],9.13
11,GTGAAAGGAAAAGTTGAACACACAAAGTAAACTATA [CACACA_site9178],9.56
12,AATAATATTTAATACGCACACAATAATAATATAAAA [CACACA_site1763],9.51
13,CACACGCACGAACACACACACATATAAATATAAATA [CACACA_site6299],9.92
14,ATATATTATTATACATGTACATATATAGATATATAT [XGTACX_site4358],9.3
15,ATATACATATAGGATGCACACATAATTCAAATACAA [CACACA_site8120],9.6
16,AACAATAATTTTGAATGTACATATAAATATTTTTAT [XGTACX_site5501],9.13
17,TATAATGGTTCTGGTGTGCACCATGACAGAATCAAG,9.09
18,AAAAAAAAGAATAGCACACACACATATATAAATATA [CACACA_site630],10.1
19,TTATTTTTTAATTATATTCAAAATTAAAAAAAAAAA [XGTACX_negctrl_site226],8.34
20,ATTAAAAAAAAAAAAAAAAAAAAAAAAAAAAAAAAA [CACACA_negctrl_site1060],8.56
21,ATTGATAAATTAACTAGTACACATATAAATATATTA [XGTACX_site2325],9.12
22,AATATAAATGTGATTACACACAACAGATTTAAATGG [CACACA_site4802],9.53
23,TATATGTATCCATTATGTACATAATAGTAATATAAT [XGTACX_site4008],9.18

row,Sequence,gcPBM binding intensity (ln)
1,TATATTTATTTTCTGTGTACACATATGTTGTGTATT [XGTACX_site7640],9.62
2,AAAACCTAGTGCATTTGTACATATTTCAATTTTAAA [XGTACX_site4582],9.04
3,TAAAAAATACAAGAGTGTACAAAATTTTTCTAAATG [XGTACX_site5334],9.06
4,TATACGTGTTTTATTTGTACTTAAGCAGGTAAGCAT [XGTACX_site193],9.15
5,CTATATATTTTTTCTTAACACACATATATAAAATAA [CACACA_site9165],9.26
6,GTAATTTTTTTCTATACACACATATATATAATATAT [CACACA_site2655],9.58
7,AATATAAATATAAATATAAATAAATAAATAAATAAA [CACACA_negctrl_site291],9.27
8,AAAGTAAAAGGGTTTGGTACACATATAATATATTAG [XGTACX_site6036],9.52
9,CATTTATATAAAGAATGTACACACAGAAATGCACAC [XGTACX_site4718],9.76
10,AGTAAAAGAAAGCACACACACATGTATTTATGTATG [CACACA_site5998],9.96
11,ATAACTTTTATTTGTACACACATACATCTATATTAT [CACACA_site6595],9.83
12,TAGTATTTATATGATTAACACACATATGGGTATTAA [CACACA_site8363],9.28
13,CATAATAGTTATAAAATACACACCAGGCATGATAAA [CACACA_site329],9.41
14,AAAAAAAAAAAAAAAAGTACTCAATAATAATTACAT [XGTACX_site670],9.14
15,ATAATGTTCACATAGGTGCACTAATATAATTATCCA [GTGCAC_site9981],9.18
16,ATATACACCTGAGAGGTGCATATATATAAAATTTAC,9.06
17,AATGTAGTTTATCGATGTACACAAAATAAAGAGAAG [XGTACX_site6956],9.42
18,CCGTACAATTTTGTCACACATAAAATACTTATGTAT [CACACA_site4871],9.16
19,TGCATATACTCAAGCACACATATATATATATATATA [CACACA_site4733],9.27
20,AATTAATGGTTAAAGGTGCACAATACATATATTACA [GTGCAC_site9943],9.58
21,ATATTAAACAAACACACACACATATATATATATATA [CACACA_site3383],9.9
22,ATATATTGAAAATATAGTACATAATAAATGTTCTTT [XGTACX_site8474],9.05
23,TTTTTTTTTTTTTTTTTTTTTTTTTTTTTTTGGGGG [CACACA_negctrl_site1570],9.7

row,Sequence,gcPBM binding intensity (ln)
1,AATAAATTTAAACACACACACACATATATATATATA [CACACA_site4621],9.99
2,TATATACATAAACACACACACACATATATATATATA [CACACA_site8707],10.1
3,AAAAAAAAAAAAAAATGTACATATATATATATATTA [XGTACX_site7330],8.98
4,CCTTGTCTTTTTTTTTTTTTTTTTTCTTCTTATTTT [GTGCAC_negctrl_site523],9.68
5,ATAAAATAAGACAAAAAAAAAATATATATATATATA [TGCATGCA_negctrl_site314],9.17
6,AGTAGATATAATATATGTACATATATATATATATAT [XGTACX_site7186],9.14
7,ATATTAAGAATAAACAGTACATATAATAAATACCAT [XGTACX_site5933],9.67
8,AAAAAAAAAAAAATTACACACATACATATAATAATA [CACACA_site8680],9.66
9,TTTGTGTATATATAATGTACATTATATTTTTATTAT [XGTACX_site6506],9.43
10,TATAAATTTATAAATAGTACATATATTTATATATAT [XGTACX_site6433],9.07
11,ATTAAAAAAAAAGAGCGTACAAATAATTACTTCTTT [XGTACX_site8262],9.09
12,AAAAAAAATATACATACATGCATACATAAGTTTCTA [TGCATGCA_site998],9.15
13,TATATATATGGACACACACACACATATATATATATA [CACACA_site6121],10
14,ATATTACATAATATATGTACACACGCAAATACTTAT [XGTACX_site671],9.48
15,CAGATAGACTTATATGCATGCATTCACCTGCCAACA [TGCATGCA_site158],9.06
16,TAAGCATAAATGTATACATGCGATGCATACACATAT [TGCATGCA_site749],9.05
17,ATGAAATTATATTGGGGTACGTCAAAAAAGGAGATA [XGTACX_site7451],9.44
18,GGGTATATATTATTATGTACACATGTATAAAATAAG [XGTACX_site2633],9.24
19,ATGTGCAAATATTAAAGTACTAAATTTTATTATTTT [XGTACX_site7306],9.18
20,ATAAATACATATAAAAGTACACACACACACATATAT [XGTACX_site1744],10.4
